This is one part of the list.
B1: chr12:57820040:57820141:-|3pUTR|ENSG00000175215|msi1|FALSE|unique (ssRNA)
RNA: GGGAGUUCUACAGUCCGACGAUCUUUUGCUUAUCAUGUUCCAUUUCGUGCCGCUUUCCCCCUUCAAGAUGCCAUUUGGAGGGUAGGGGAUCUGCUUCCCACUGUGACUGGGCUAUGGGAUUCUGACUACCUUGCUUACAGAUUCAACAGAGGAUUGAGCAUCA
B2: chr15:41696124:41696239:+|CDS|ENSG00000174197|unk|FALSE|unique (ssRNA)
RNA: GGGAGUUCUACAGUCCGACGAUCUGUAGCCUCACCGUUAGACCAGAACGGAAGCUUCAAUGUUGUUAUUAAAGAGGAACCUCUAGAUGAUUAUGACUACGAACUUGGUGAGUGCCCAGAAGGGGUCACUGUGAAACAGGAAGACAACAGAGGAUUGAGCAUCA
B3: chr1:193096648:193096749:-|CDS|ENSG00000023572|msi1_unk|FALSE|overlapping (ssRNA)
RNA: GGGAGUUCUACAGUCCGACGAUCCAACAGGUUCCAAGAAUAUUUGUCAAUGGUACUUUUAUUGGAGGUGCAACUGACACUCAUAGGCUUCACAAAGAAGGAAAAUUGCUCCCACUAGUUCAUCAGUGUUAUUUAAAAAAAAGUCAACAGAGGAUUGAGCAUCA
B4: chr6:105098072:105098315:-|3pUTR|ENSG00000112276|msi1|total|mutant (ssRNA)
RNA: GGGAGUUCUACAGUCCGACGAUCGUACUUUAAAUUCAUUUAUACAAAUGAAUAAGUGUAUCUUUGUAUAAUGCAUAAAUACACCGAUAAAAACAUGUUUGCUGCCAAAGUUCCCAAUAAGAUGCUUCCUGUGUUUUUUGGCCUCAACAGAGGAUUGAGCAUCA
B5: chr15:59095394:59095499:+|3pUTR|ENSG00000157450|unk|FALSE|unique (ssRNA)
RNA: GGGAGUUCUACAGUCCGACGAUCUAAAUACCAUCCUUAAUACUGGGAACAGAAUACAACCCAUAUAAAUCAGAUGCAGGUGGUAGUCACAUCACCAGAGUGAUCAGUAUAAAUUUUCUUGGUGUAUCCUUUUCCUUUCAACACCAACAGAGGAUUGAGCAUCA
B6: chr14:92163265:92163366:+|3pUTR|ENSG00000165934|msi1|total|mutant (ssRNA)
RNA: GGGAGUUCUACAGUCCGACGAUCUAAUAUCAGACUCGAAUUACUAUUUCAUUCUAUUUCAAAUGCUUAUAAAGCUACUAUUGCCGAUUACCGUGUUAAUGCAAAGUUUACAGACUUUUGAUAUGGAAAACCAGAUAAAACAAUCAACAGAGGAUUGAGCAUCA
B7: ENSG00000186575:stop:overlap|stop_codon|ENSG00000186575|stop_codon|NA|stop_codon (ssRNA)
RNA: GGGAGUUCUACAGUCCGACGAUCCCAUUAAAAAGCUCACCUUGCAGAGCGCCAAGUCCCGAGUGGCCUUCUUUGAAGAGCUCUAGCAGGUGACCCAGCCACCCCAGGACCUGCCACUUCUCCUGCUACCGGGACCGCGGGAUGCAACAGAGGAUUGAGCAUCA
B8: ENSG00000136451:be:win_1901|3pUTR|ENSG00000136451|bound_else_gene|NA|bound_elsewhere_windowed (ssRNA)
RNA: GGGAGUUCUACAGUCCGACGAUCUCCCAAGGAAUCACUUUAUUGUAAACACUAGCAGAACUCUUCUCCCUAUACAAGGUGGAUGGCUGAUUUUAACCUGAAAUUUUAAAUCCACAGAUUGAGAGCUAGUGUAGAAUUGUCUGUCAACAGAGGAUUGAGCAUCA
B9: chr1:192811693:192811799:+|3pUTR|ENSG00000116741|unk|FALSE|unique (ssRNA)
RNA: GGGAGUUCUACAGUCCGACGAUCCUUGAAUUCAGCCUGGGUGUUCAGGAAACAUCACUCAGAACUAUUGAUUCAAAGUUGGGUAGUGAAUCAGGAAGCCAGUAACUGACUAGGAGAAGCUGGUAUCAGAACAGCUUCCCUCACCAACAGAGGAUUGAGCAUCA
B10: chr6:44253573:44253761:+|CDS_3pUTR|ENSG00000096384|msi1_unk|FALSE|overlapping (ssRNA)
RNA: GGGAGUUCUACAGUCCGACGAUCUCGCAUGGAAGAAGUCGAUUAGGUUAGGAGUUCAUAGUUGGAAAACUUGUGCCCUUGUAUAGUGUCCCCAUGGGCUCCCACUGCAGCCUCGAGUGCCCCUGUCCCACCUGGCUCCCCCUGCAACAGAGGAUUGAGCAUCA
B11: chr5:171862525:171862626:-|3pUTR|ENSG00000072803|msi1|total|mutant (ssRNA)
RNA: GGGAGUUCUACAGUCCGACGAUCGACAGUGCAUGGAAAGGACGUUGGCAUCCAAUUGGCACUCCUUCUCCCUUAUUCAAUAUCCGGUUUGAUUUGCCCUUCGCCAUUGUUUCCAAAGAUCAAGGAAUGUCAAUAACAUUUUAACAACAGAGGAUUGAGCAUCA
B12: chr1:150144965:150145066:+|3pUTR|ENSG00000136631|msi1|FALSE|unique (ssRNA)
RNA: GGGAGUUCUACAGUCCGACGAUCAGACUCCCAGAGUUGUCCUAACAAUAAGUCUGAGCCCAUCUCAACCCACUUUUCUCCGGUAGUCUUUAUGUAUCUGUUAGCACAAUCACUUCAGUUACUGAUGAAUUUUGUUGGGAUCUGCAACAGAGGAUUGAGCAUCA
B13: chr8:20179120:20179484:-|CDS|ENSG00000036565|control|control|control (ssRNA)
RNA: GGGAGUUCUACAGUCCGACGAUCCAUCUUCUCCUUCUUCAACAACAACACCGUGGCUGUUGAAGAAAGCGUACCUAGUGGAAUAGCAUGGAUGAAUGACACUGCCAGCACCAUCCCACCUCCAGCCACUGAAGCCAUCUCAGCCAACAGAGGAUUGAGCAUCA
B14: ENSG00000070961:be:win_5301|3pUTR|ENSG00000070961|bound_else_gene|NA|bound_elsewhere_windowed (ssRNA)
RNA: GGGAGUUCUACAGUCCGACGAUCUUGCCUCUGUCUUUACCCUUUAGAAACUGGCAUGUGUUAGGGCCCAGAUUUCACCAGAUACACAAUCCUCAGGCUGACAUAAAGUUUACGAGGACUGCUACUAUAACUGAGAGUGCUGACCAACAGAGGAUUGAGCAUCA

What follows are binders tested against MSI1 full-length (mouse, UniProt Q61474 1-362) (assay: nsRBNS (natural sequence RNA bind-n-seq); RBNS binding buffer (assumed for nsRBNS): 25 mM Tris pH 7.5, 150 mM KCl, 3 mM MgCl2, 0.01% Triton X-100, 500 ug/ml BSA, 20 U/ml SUPERase-In, 4 C; UNK is unkempt and MSI1 is Musashi-1; names of the RNAs are library labels; protein concentration not given here; high values mean tight binding).
Sequence of UniProt Q61474 (Q61474 whole entry): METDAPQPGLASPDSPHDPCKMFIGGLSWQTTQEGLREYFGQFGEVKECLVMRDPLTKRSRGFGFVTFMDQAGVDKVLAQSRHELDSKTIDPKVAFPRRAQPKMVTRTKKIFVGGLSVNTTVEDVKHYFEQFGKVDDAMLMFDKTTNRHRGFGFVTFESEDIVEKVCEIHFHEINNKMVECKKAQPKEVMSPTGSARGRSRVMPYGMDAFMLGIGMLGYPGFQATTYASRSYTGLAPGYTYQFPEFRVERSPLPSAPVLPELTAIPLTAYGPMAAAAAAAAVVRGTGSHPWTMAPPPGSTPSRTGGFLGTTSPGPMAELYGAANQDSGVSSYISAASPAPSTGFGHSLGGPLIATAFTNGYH

Q: For B1, which binding signal is on record?
A: The binding signal was 0.539 enrichment R.

Q: How did the binding signal turn out when B2 was run?
A: Its binding signal is 0.654 enrichment R.

Q: Which binding signal does the source give for B3 here?
A: The binding signal was 7.98 enrichment R.

Q: With B4 as the binder, how does the binding signal read?
A: The binding signal was 0.276 enrichment R.

Q: B5 was tested. Which binding signal did it give?
A: The binding signal was 0.744 enrichment R.

Q: With B6 as the binder, how does the binding signal read?
A: Its binding signal is 0.4 enrichment R.

Q: With B7 as the binder, how does the binding signal read?
A: The binding signal was 0.435 enrichment R.

Q: How did the binding signal turn out when B8 was run?
A: The binding signal was 0.611 enrichment R.

Q: For B9, which binding signal is on record?
A: Its binding signal is 0.283 enrichment R.

Q: With B10 as the binder, how does the binding signal read?
A: The binding signal was 1.6 enrichment R.

Q: With B11 as the binder, how does the binding signal read?
A: Its binding signal is 0.579 enrichment R.

Q: How did the binding signal turn out when B12 was run?
A: Its binding signal is 0.547 enrichment R.

Q: Which binding signal does the source give for B13 here?
A: Its binding signal is 0.332 enrichment R.

Q: B14 was tested. Which binding signal did it give?
A: The binding signal was 0.545 enrichment R.
